Test results taken from US20130288284A1 (AGIOS PHARMACEUTICALS, published 2013).

Molecular target: the molecule itself
Assay: size-exclusion chromatography (S-200), self-association into a homodimer

B1: recombinant human wild type IDH1 with C-terminal His8 tag (enzyme)
chain: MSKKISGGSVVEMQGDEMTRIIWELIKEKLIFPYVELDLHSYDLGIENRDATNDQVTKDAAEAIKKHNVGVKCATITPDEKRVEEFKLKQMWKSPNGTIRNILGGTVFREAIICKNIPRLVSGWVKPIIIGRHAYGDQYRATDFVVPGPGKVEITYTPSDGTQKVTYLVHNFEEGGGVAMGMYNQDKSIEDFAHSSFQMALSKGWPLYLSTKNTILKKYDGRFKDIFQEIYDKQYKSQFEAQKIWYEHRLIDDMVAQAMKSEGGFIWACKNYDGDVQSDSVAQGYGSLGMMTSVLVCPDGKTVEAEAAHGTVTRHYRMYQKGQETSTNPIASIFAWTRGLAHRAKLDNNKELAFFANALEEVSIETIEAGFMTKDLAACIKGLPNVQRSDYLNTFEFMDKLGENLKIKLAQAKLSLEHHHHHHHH
notes: The whole IDH1 coding region in pET41a with C-terminal SLE-His8, expressed in E. coli; also called IDHwt; IDH1 wt
B1: binds.

B2: human cytosolic isocitrate dehydrogenase (HcIDH) engineered mutant form R132S with an 11-residue C-terminal affinity-purification tag (enzyme)
chain: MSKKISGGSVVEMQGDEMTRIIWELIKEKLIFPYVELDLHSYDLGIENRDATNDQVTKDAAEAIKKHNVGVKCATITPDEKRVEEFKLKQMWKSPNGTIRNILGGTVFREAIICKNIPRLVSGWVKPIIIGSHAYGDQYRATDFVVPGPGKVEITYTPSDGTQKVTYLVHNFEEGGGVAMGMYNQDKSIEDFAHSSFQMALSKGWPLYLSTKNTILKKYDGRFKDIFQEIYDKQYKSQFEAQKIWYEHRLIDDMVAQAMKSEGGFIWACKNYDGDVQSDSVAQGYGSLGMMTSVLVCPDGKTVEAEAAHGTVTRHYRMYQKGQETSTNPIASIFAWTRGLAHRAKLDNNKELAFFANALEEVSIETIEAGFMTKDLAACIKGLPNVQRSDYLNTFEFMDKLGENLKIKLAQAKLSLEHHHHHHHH
notes: The whole IDH1 coding region was cloned into pET41a; The stop codon was changed to Ser, which gives the C-terminal SLE-His8; Expressed in E. coli; also called IDH1 R132S; IDHR132S
B2: binds.

B3: recombinant human IDH1 R132H mutant with C-terminal His8 tag (enzyme)
chain: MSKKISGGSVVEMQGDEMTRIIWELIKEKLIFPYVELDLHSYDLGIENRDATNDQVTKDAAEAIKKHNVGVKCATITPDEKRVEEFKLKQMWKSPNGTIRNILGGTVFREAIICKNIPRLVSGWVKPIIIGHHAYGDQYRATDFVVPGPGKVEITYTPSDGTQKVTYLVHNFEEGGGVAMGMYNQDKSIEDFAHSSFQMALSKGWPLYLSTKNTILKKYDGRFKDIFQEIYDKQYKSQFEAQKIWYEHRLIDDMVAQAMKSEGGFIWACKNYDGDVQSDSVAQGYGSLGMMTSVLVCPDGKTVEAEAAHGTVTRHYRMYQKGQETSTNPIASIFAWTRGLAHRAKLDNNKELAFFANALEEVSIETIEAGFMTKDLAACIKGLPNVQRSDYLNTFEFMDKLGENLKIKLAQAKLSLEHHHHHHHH
notes: The whole IDH1 coding region in pET41a with C-terminal SLE-His8, expressed in E. coli; Crystallised as a homodimer with aKG, NADPH and Ca2+; also called IDHR132H; ICDH1 R132H
B3: binds.
